From PMC4336329 (PLoS ONE, 2015)
In all, about 310,000 compounds went through this assay and about 14,000 (4.5%) showed an effect of 50% or more. Effects have a minus sign here. This is one part of the list.
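Note: peak tail current of the secondary pulse compared with the same well before compound.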

Each molecule was assayed against human ether-à-go-go-related gene (hERG) potassium channel (human, UniProt Q12809) (assay: primary screen, population patch clamp on CHO cells stably expressing hERG).
human ether-à-go-go-related gene (hERG) potassium channel, sequence (Q12809 whole entry, looked up): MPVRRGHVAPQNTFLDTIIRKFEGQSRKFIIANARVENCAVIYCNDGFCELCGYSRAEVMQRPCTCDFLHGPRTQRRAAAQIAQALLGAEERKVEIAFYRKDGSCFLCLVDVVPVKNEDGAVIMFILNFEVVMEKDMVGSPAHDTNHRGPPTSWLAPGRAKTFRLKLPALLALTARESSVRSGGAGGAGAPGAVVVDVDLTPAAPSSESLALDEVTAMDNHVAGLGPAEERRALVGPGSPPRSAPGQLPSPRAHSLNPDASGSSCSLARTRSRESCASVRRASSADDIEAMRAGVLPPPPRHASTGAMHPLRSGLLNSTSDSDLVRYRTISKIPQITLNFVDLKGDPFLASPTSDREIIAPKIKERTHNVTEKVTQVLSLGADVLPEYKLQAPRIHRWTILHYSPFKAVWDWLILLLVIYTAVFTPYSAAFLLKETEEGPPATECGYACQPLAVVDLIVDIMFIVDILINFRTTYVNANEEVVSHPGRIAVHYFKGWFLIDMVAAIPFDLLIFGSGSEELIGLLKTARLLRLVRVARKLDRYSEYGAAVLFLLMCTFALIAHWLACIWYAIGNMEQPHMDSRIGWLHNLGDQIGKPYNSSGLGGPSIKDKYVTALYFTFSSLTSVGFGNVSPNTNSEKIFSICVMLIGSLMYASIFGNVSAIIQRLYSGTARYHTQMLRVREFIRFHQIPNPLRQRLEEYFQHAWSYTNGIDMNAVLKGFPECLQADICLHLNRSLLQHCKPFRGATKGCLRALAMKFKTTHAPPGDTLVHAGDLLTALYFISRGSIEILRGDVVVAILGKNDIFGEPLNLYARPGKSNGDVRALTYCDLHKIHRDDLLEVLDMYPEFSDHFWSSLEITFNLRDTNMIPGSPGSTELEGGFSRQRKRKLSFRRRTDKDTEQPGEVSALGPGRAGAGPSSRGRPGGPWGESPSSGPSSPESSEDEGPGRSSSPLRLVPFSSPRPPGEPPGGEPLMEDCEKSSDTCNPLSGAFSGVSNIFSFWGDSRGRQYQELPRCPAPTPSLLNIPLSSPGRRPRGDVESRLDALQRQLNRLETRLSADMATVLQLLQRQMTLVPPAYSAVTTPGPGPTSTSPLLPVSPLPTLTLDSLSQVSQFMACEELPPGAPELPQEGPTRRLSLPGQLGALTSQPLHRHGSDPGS
In the case of `Fc1ccccc1/C=N/Nc1ncnc2nc[nH]c12`, the “hERG current change (%, negative = inhibition) at 10uM” value is reported as -0.351%.
With `CC1(C)CC(=O)C2=C(C1)N(c1ccc(F)cc1)C(=O)CC2c1ccccc1` (stereo not shown) the “hERG current change (%, negative = inhibition) at 10uM” value was 14%.
In the case of `COc1cc(Cl)ccc1OCc1cc(C(=O)N(C)CCc2cnn(C)c2)no1`, the “hERG current change (%, negative = inhibition) at 10uM” value is reported as -28%.
In the case of `COc1ccc(CNCCC(c2ccc(OC)cc2)c2ccccc2OC)cc1` (stereo not shown), the “hERG current change (%, negative = inhibition) at 10uM” value is reported as -74.2%.
For `Cn1c(=O)n(Cc2ccccc2Cl)c(=O)c2c1[nH]c(=S)n2C`, the “hERG current change (%, negative = inhibition) at 10uM” value was 17.3%.
With `COc1nc(NCC2CCCO2)nc(N2CC3CC(C2)c2cccc(=O)n2C3)n1` (stereo not shown) the “hERG current change (%, negative = inhibition) at 10uM” value was 5.37%.
`CCCn1c(=N)c(C#N)cc2c(=O)n3cccc(C)c3nc21` was tested, and the “hERG current change (%, negative = inhibition) at 10uM” value was -53%.
With `CCOC(=O)CCc1c(C)c2ccc(O)cc2oc1=O` the “hERG current change (%, negative = inhibition) at 10uM” value was 2.92%.
In the case of `COc1ccc(CC(=O)c2ccccc2C(=O)O)cc1`, the “hERG current change (%, negative = inhibition) at 10uM” value is reported as 6.93%.
With `O=C(CCS(=O)(=O)c1ccc(Br)cc1)N1CCN(c2ccccc2Cl)CC1` the “hERG current change (%, negative = inhibition) at 10uM” value was -18.5%.
For `CCc1cc(C(=O)N2CCCC(CCC(=O)NCc3cccc(OC)c3)C2)no1` (stereo not shown), the “hERG current change (%, negative = inhibition) at 10uM” value was 2.48%.
With `COc1ccc(N2C(=O)Cc3c2nc(N)c(C#N)c3N)cc1` the “hERG current change (%, negative = inhibition) at 10uM” value was 14.4%.
With `CCS(=O)(=O)c1ccc2oc(SCC(=O)Nc3ccc(OC)cc3OC)nc2c1` the “hERG current change (%, negative = inhibition) at 10uM” value was 26.6%.
With `CN(CC(=O)Nc1cccc(F)c1)C(=O)c1ccc2c(c1)OCCO2` the “hERG current change (%, negative = inhibition) at 10uM” value was 7.95%.
In the case of `COc1cccc(CN(C)C(=O)Cc2c[nH]c3ccccc23)c1OC`, the “hERG current change (%, negative = inhibition) at 10uM” value is reported as 16.7%.
`Cc1n[nH]c(=S)n1/N=C/c1ccc(OCc2ccc(Cl)cc2Cl)cc1` was tested, and the “hERG current change (%, negative = inhibition) at 10uM” value was 11.1%.
`Cc1cccc(C(=O)NCC(c2ccc(F)cc2)N2CCOCC2)c1` (stereo not shown) was tested, and the “hERG current change (%, negative = inhibition) at 10uM” value was -2.49%.
With `CC(=C/c1ccccc1)/C=C1/SC(N2CCOCC2)=NC1=O` the “hERG current change (%, negative = inhibition) at 10uM” value was -20.1%.
With `CCOC(=O)C1=C(C)NC(=O)NC1c1cc2c(cc1Br)OCO2` (stereo not shown) the “hERG current change (%, negative = inhibition) at 10uM” value was 6.32%.
For `O=C(O)CCCNC(=O)CCCn1nnc2ccccc2c1=O`, the “hERG current change (%, negative = inhibition) at 10uM” value was 10.8%.
For `CNC(=O)c1cc(C(=O)c2ccc(Cl)cc2)c(Br)[nH]1`, the “hERG current change (%, negative = inhibition) at 10uM” value was 7.47%.
In the case of `Cc1nn(CC(=O)Nc2ccc(F)cc2)c(=O)c2ccccc12`, the “hERG current change (%, negative = inhibition) at 10uM” value is reported as 4.75%.
`Cc1ccc(S(=O)(=O)N2CCOCC2)cc1C(=O)NC(=S)N1CC(C)CC(C)C1` (stereo not shown) was tested, and the “hERG current change (%, negative = inhibition) at 10uM” value was -1.25%.
With `CC(C)(C)c1cc(-n2ccnc2)n2ncc(-c3ccc(Cl)cc3)c2n1` the “hERG current change (%, negative = inhibition) at 10uM” value was 3.26%.
With `CCN1C(=O)/C(=C2/C=Cc3cc(C)ccc3N2CC)N(C)C1=S` the “hERG current change (%, negative = inhibition) at 10uM” value was -54.8%.
For `C=CCN1C(=O)N(c2ccc(Cl)cc2)C(=O)C1CC(=O)Nc1ccc(F)cc1` (stereo not shown), the “hERG current change (%, negative = inhibition) at 10uM” value was -30.3%.
With `CCOC(=O)/C(C#N)=C1/C=CN(c2ccccc2)C=N1` the “hERG current change (%, negative = inhibition) at 10uM” value was -1.94%.
`Cc1cccc(-c2nc(S(=O)(=O)c3ccc(F)cc3)c(NCCCN3CCOCC3)o2)c1` was tested, and the “hERG current change (%, negative = inhibition) at 10uM” value was -69.4%.
In the case of `CC1(C)CC2CC(C)(CN2S(=O)(=O)c2ccc(C(=O)Nc3cccc(S(=O)(=O)N4CCOCC4)c3)cc2)C1` (stereo not shown), the “hERG current change (%, negative = inhibition) at 10uM” value is reported as 4.79%.
With `C[C@@H](CN1C2=NC[C@H](C)N2C[C@H]1Cc1ccc(O)cc1)NC(=O)CCC1CCCCC1` the “hERG current change (%, negative = inhibition) at 10uM” value was -11.9%.
With `O=C(O)c1c2c(nc3ccccc13)CCCCC2` the “hERG current change (%, negative = inhibition) at 10uM” value was 15.8%.
In the case of `Cc1cccc(-c2noc(CN(C(=O)C34CC5CC(CC(C5)C3)C4)C(C)C)n2)c1`, the “hERG current change (%, negative = inhibition) at 10uM” value is reported as 24.1%.
`CC(NC(=O)c1ccc(Br)cc1)c1ccccc1` (stereo not shown) was tested, and the “hERG current change (%, negative = inhibition) at 10uM” value was -0.216%.
With `CCOc1ccc(CN(C)C(=O)CCN2C(=O)c3ccccc3C2=O)cc1OC` the “hERG current change (%, negative = inhibition) at 10uM” value was 7.88%.
In the case of `COc1ccc(CNC(=O)CSc2nnc(C)s2)cc1`, the “hERG current change (%, negative = inhibition) at 10uM” value is reported as 3.85%.
For `COc1ccccc1NC(=S)NC12CN3CN(CN(C3)C1)C2`, the “hERG current change (%, negative = inhibition) at 10uM” value was 28.1%.
For `Cc1cc(C)nc(NS(=O)(=O)c2ccc(NC(=O)CN3C(=O)C4CC=CCC4C3=O)cc2)n1` (stereo not shown), the “hERG current change (%, negative = inhibition) at 10uM” value was 10.1%.
`Cn1c(=O)c(Oc2cc(Cl)cc(Cl)c2)nc2ccccc21` was tested, and the “hERG current change (%, negative = inhibition) at 10uM” value was 3.25%.
In the case of `Cc1ccc(Nc2cc(C)nc3nc(C)nn23)c(C)c1`, the “hERG current change (%, negative = inhibition) at 10uM” value is reported as 9.08%.
In the case of `CC(C)[C@H](NC(=O)c1ccccc1)C(=O)Nc1cccc(S(=O)(=O)N2CCOCC2)c1`, the “hERG current change (%, negative = inhibition) at 10uM” value is reported as -2.22%.
With `CCOc1ccccc1N(CC(=O)NCCSc1ccccn1)S(=O)(=O)c1ccccc1` the “hERG current change (%, negative = inhibition) at 10uM” value was -23.1%.
`O=C(NCc1nc2ccccc2[nH]1)C1=C[C@H](c2coc3ccccc3c2=O)C[C@H](OCCCCO)O1` was tested, and the “hERG current change (%, negative = inhibition) at 10uM” value was -50.7%.
`CN1CCC(=C(c2ccc(Cl)cc2)c2ccccn2)CC1.O=C([O-])/C=C\C(=O)[O-]` was tested, and the “hERG current change (%, negative = inhibition) at 10uM” value was -40.5%.
With `CSc1ccc(S(=O)(=O)N2CCC(C(=O)Nc3ccc(C(N)=O)cc3)CC2)cc1` the “hERG current change (%, negative = inhibition) at 10uM” value was 17.5%.
In the case of `COc1ccc(-n2nnnc2-c2cn(C)nc2C(F)(F)F)cc1`, the “hERG current change (%, negative = inhibition) at 10uM” value is reported as 7.65%.
In the case of `Cc1ccc(C2=NN(C3=NN=C(N)Cc4ncnn43)C(O)(C(F)(F)F)C2)cc1` (stereo not shown), the “hERG current change (%, negative = inhibition) at 10uM” value is reported as 18.8%.
In the case of `CCOC(=O)C(=Nc1ccccc1)NO`, the “hERG current change (%, negative = inhibition) at 10uM” value is reported as 7.76%.
`CCOC(=O)C1CCCN(c2c(NCCc3ccc(Cl)cc3)c(=O)c2=O)C1` (stereo not shown) was tested, and the “hERG current change (%, negative = inhibition) at 10uM” value was -13.6%.
For `Cc1ccccc1CS(=O)(=O)c1nnc([C@H](Cc2ccccc2)NC(=O)OC(C)(C)C)o1`, the “hERG current change (%, negative = inhibition) at 10uM” value was -10.2%.
`COC(=O)C1C2C=CC3(CN(C(C)C)C(=O)C13)O2` (stereo not shown) was tested, and the “hERG current change (%, negative = inhibition) at 10uM” value was 12.3%.
In the case of `CCN(CC)S(=O)(=O)c1ccc(C(=O)NC2CN3CCC2CC3)cc1` (stereo not shown), the “hERG current change (%, negative = inhibition) at 10uM” value is reported as 25.6%.
For `Cc1cccc(N/C(N)=N/c2nc(C(F)(F)F)cc(C(F)(F)F)n2)c1`, the “hERG current change (%, negative = inhibition) at 10uM” value was 15.6%.
In the case of `CNC(=O)c1ccccc1S(=O)(=O)c1ccccc1C#N`, the “hERG current change (%, negative = inhibition) at 10uM” value is reported as 11.6%.
For `COc1ccc(/C=C/C(=O)NC2CCCCCC2)cc1S(=O)(=O)N1CCOCC1`, the “hERG current change (%, negative = inhibition) at 10uM” value was -19.4%.
With `Cc1nn(C)c(C(=O)Nc2ccc(S(=O)(=O)NC34CC5CC(CC(C5)C3)C4)cc2)c1Br` the “hERG current change (%, negative = inhibition) at 10uM” value was 9.77%.
